This note sets out measurements from the supplement of paper PMC12423691.

This is one part of the list. Binding of human transcription factors and regulators to the viral nucleoprotein by AlphaScreen, crude cell-free proteins, amounts not normalised, one pass. Fold of the Venus control; higher = more signal. No active / inactive call. Single-pass screen; sequences are the whole Swiss-Prot entries looked up by name.

B1: FOXD4, Q12950 (protein)
chain: MNLPRAERLRSTPQRSLRDSDGEDGKIDVLGEEEDEDEEEAASQQFLEQSLQPGLQVARWGGVALPREHIEGGGGPSDPSEFGTEFRAPPRSAAASEDARQPAKPPSSYIALITMAILQSPHKRLTLSGICAFISDRFPYYRRKFPAWQNSIRHNLSLNDCFVKIPREPGRPGKGNYWSLDPASQDMFDNGSFLRRRKRFQRHQPTPGAHLPHPFPLPAAHAALHNPRPGPLLGAPAPPQPVPGAYPNTGPGRRPYALLHPHPPRYLLLSAPAYAGAPKKAEGADLATPAPFPCCSPHLVLSLGRRARVWRRHREADASLSALRVSCKGSGERVQGLRRVCPRPRGATAPCSSDRQACRTILQQQQRHQEEDCANGCAPTKGAVLGGHLSAASALLRYQAVAEGSGLTSLAAPLGGEGTSPVFLVSPTPSSLAESAGPS
B2: TAF12, Q16514 (protein)
chain: MNQFGPSALINLSNFSSIKPEPASTPPQGSMANSTAVVKIPGTPGAGGRLSPENNQVLTKKKLQDLVREVDPNEQLDEDVEEMLLQIADDFIESVVTAACQLARHRKSSTLEVKDVQLHLERQWNMWIPGFGSEEIRPYKKACTTEAHKQRMALIRKTTKK
B3: SIGIRR, Q6IA17 (protein)
chain: MPGVCDRAPDFLSPSEDQVLRPALGSSVALNCTAWVVSGPHCSLPSVQWLKDGLPLGIGGHYSLHEYSWVKANLSEVLVSSVLGVNVTSTEVYGAFTCSIQNISFSSFTLQRAGPTSHVAAVLASLLVLLALLLAALLYVKCRLNVLLWYQDAYGEVEINDGKLYDAYVSYSDCPEDRKFVNFILKPQLERRRGYKLFLDDRDLLPRAEPSADLLVNLSRCRRLIVVLSDAFLSRAWCSHSFREGLCRLLELTRRPIFITFEGQRRDPAHPALRLLRQHRHLVTLLLWRPGSVTPSSDFWKEVQLALPRKVQYRPVEGDPQTQLQDDKDPMLILRGRVPEGRALDSEVDPDPEGDLGVRGPVFGEPSAPPHTSGVSLGESRSSEVDVSDLGSRNYSARTDFYCLVSKDDM
B4: ZKSCAN2, Q63HK3 (protein)
chain: MAVALDSQIDAPLEVEGCLIMKVEKDPEWASEPILEGSDSSETFRKCFRQFCYEDVTGPHEAFSKLWELCCRWLKPEMRSKEQILELLVIEQFLTILPEKIQAWAQKQCPQSGEEAVALVVHLEKETGRLRQQVSSPVHREKHSPLGAAWEVADFQPEQVETQPRAVSREEPGSLHSGHQEQLNRKRERRPLPKNARPSPWVPALADEWNTLDQEVTTTRLPAGSQEPVKDVHVARGFSYRKSVHQIPAQRDLYRDFRKENVGNVVSLGSAVSTSNKITRLEQRKEPWTLGLHSSNKRSILRSNYVKEKSVHAIQVPARSAGKTWREQQQWGLEDEKIAGVHWSYEETKTFLAILKESRFYETLQACPRNSQVYGAVAEWLRECGFLRTPEQCRTKFKSLQKSYRKVRNGHMLEPCAFFEDMDALLNPAARAPSTDKPKEMIPVPRLKRIAISAKEHISLVEEEEAAEDSDDDEIGIEFIRKSEIHGAPVLFQNLSGVHWGYEETKTFLDILRETRFYEALQACHRKSKLYGAVAEQLRECGFLRTPEQCRTKFKSLQKSYRKVKNGHVLESCAFYKEMDALINSRASAPSPSTPEEVPSPSRQERGGIEVEPQEPTGWEPEETSQEAVIEDSCSERMSEEEIVQEPEFQGPPGLLQSPNDFEIGSSIKEDPTQIVYKDMEQHRALIEKSKRVVSQSTDPSKYRKRECISGRQWENLQGIRQGKPMSQPRDLGKAVVHQRPFVGKRPYRLLKYGESFGRSTRLMCRMTHHKENPYKCGVCGKCFGRSRSLIRHQRIHTGEKPFKCLDCGKSFNDSSNFGAHQRIHTGEKPYRCGECGKCFSQSSSLIIHQRTHTGEKPYQCGECGKSFTNSSHFSAHRRVHTGENPYKCVDCEKSFNNCTRFREHRRIHTGEKPYGCAQCGKRFSKSSVLTKHREVHVREKPLPHPPSLYCPENPHKGKTDEFRKTF
B5: SALL4, Q9UJQ4 (protein)
chain: MSRRKQAKPQHINSEEDQGEQQPQQQTPEFADAAPAAPAAGELGAPVNHPGNDEVASEDEATVKRLRREETHVCEKCCAEFFSISEFLEHKKNCTKNPPVLIMNDSEGPVPSEDFSGAVLSHQPTSPGSKDCHRENGGSSEDMKEKPDAESVVYLKTETALPPTPQDISYLAKGKVANTNVTLQALRGTKVAVNQRSADALPAPVPGANSIPWVLEQILCLQQQQLQQIQLTEQIRIQVNMWASHALHSSGAGADTLKTLGSHMSQQVSAAVALLSQKAGSQGLSLDALKQAKLPHANIPSATSSLSPGLAPFTLKPDGTRVLPNVMSRLPSALLPQAPGSVLFQSPFSTVALDTSKKGKGKPPNISAVDVKPKDEAALYKHKCKYCSKVFGTDSSLQIHLRSHTGERPFVCSVCGHRFTTKGNLKVHFHRHPQVKANPQLFAEFQDKVAAGNGIPYALSVPDPIDEPSLSLDSKPVLVTTSVGLPQNLSSGTNPKDLTGGSLPGDLQPGPSPESEGGPTLPGVGPNYNSPRAGGFQGSGTPEPGSETLKLQQLVENIDKATTDPNECLICHRVLSCQSSLKMHYRTHTGERPFQCKICGRAFSTKGNLKTHLGVHRTNTSIKTQHSCPICQKKFTNAVMLQQHIRMHMGGQIPNTPLPENPCDFTGSEPMTVGENGSTGAICHDDVIESIDVEEVSSQEAPSSSSKVPTPLPSIHSASPTLGFAMMASLDAPGKVGPAPFNLQRQGSRENGSVESDGLTNDSSSLMGDQEYQSRSPDILETTSFQALSPANSQAESIKSKSPDAGSKAESSENSRTEMEGRSSLPSTFIRAPPTYVKVEVPGTFVGPSTLSPGMTPLLAAQPRRQAKQHGCTRCGKNFSSASALQIHERTHTGEKPFVCNICGRAFTTKGNLKVHYMTHGANNNSARRGRKLAIENTMALLGTDGKRVSEIFPKEILAPSVNVDPVVWNQYTSMLNGGLAVKTNEISVIQSGGVPTLPVSLGATSVVNNATVSKMDGSQSGISADVEKPSATDGVPKHQFPHFLEENKIAVS
B6: ZNF514, Q96K75 (protein)
chain: MTFEDVAVEFSQWEWGQLNPAQKDLYREVMLENFRNLAILGLLVSKPYVICQLEEGGEPFMVEREISTGAHSDWKRRSKSKESMPSWGISKEELFQVVSVEKHIQDVLQFSKLKAACGCDGQLEMQQIKQERHLKQMSTIHKSATTLSRDYKWNGFGRSLGLRSVLVNQHSILMGEGSYKCDTEFRQTLGGNNSQRTHPEKKSCKCNECGKSFHFQSELRRHQRCHTGEKPYECSDCGRAFGHISSLIKHQRTHTGEKPYECSECGRAFSQSSSLVLHYRFHTGEKPYKCNECGRAFGHTSSLIKHQRTHTGEKPYECRECGRTFSQSSSLIVHYRFHTGEKPYKCNKCGRAFSQSSSLTQHYRFHTGEKPYKCNECGRAFAHTASLIKHQRSHAGKKTL
B7: PBX1, P40424 (protein)
chain: MDEQPRLMHSHAGVGMAGHPGLSQHLQDGAGGTEGEGGRKQDIGDILQQIMTITDQSLDEAQARKHALNCHRMKPALFNVLCEIKEKTVLSIRGAQEEEPTDPQLMRLDNMLLAEGVAGPEKGGGSAAAAAAAAASGGAGSDNSVEHSDYRAKLSQIRQIYHTELEKYEQACNEFTTHVMNLLREQSRTRPISPKEIERMVSIIHRKFSSIQMQLKQSTCEAVMILRSRFLDARRKRRNFNKQATEILNEYFYSHLSNPYPSEEAKEELAKKCGITVSQVSNWFGNKRIRYKKNIGKFQEEANIYAAKTAVTATNVSAHGSQANSPSTPNSAGSSSSFNMSNSGDLFMSVQSLNGDSYQGAQVGANVQSQVDTLRHVISQTGGYSDGLAASQMYSPQGISANGGWQDATTPSSVTSPTEGPGSVHSDTSN
B8: PBX3, P40426 (protein)
chain: MDDQSRMLQTLAGVNLAGHSVQGGMALPPPPHGHEGADGDGRKQDIGDILHQIMTITDQSLDEAQAKKHALNCHRMKPALFSVLCEIKEKTGLSIRGAQEEDPPDPQLMRLDNMLLAEGVSGPEKGGGSAAAAAAAAASGGSSDNSIEHSDYRAKLTQIRQIYHTELEKYEQACNEFTTHVMNLLREQSRTRPISPKEIERMVGIIHRKFSSIQMQLKQSTCEAVMILRSRFLDARRKRRNFSKQATEILNEYFYSHLSNPYPSEEAKEELAKKCSITVSQVSNWFGNKRIRYKKNIGKFQEEANLYAAKTAVTAAHAVAAAVQNNQTNSPTTPNSGSSGSFNLPNSGDMFMNMQSLNGDSYQGSQVGANVQSQVDTLRHVINQTGGYSDGLGGNSLYSPHNLNANGGWQDATTPSSVTSPTEGPGSVHSDTSN
B9: PLAG1, Q6DJT9 (protein)
chain: MATVIPGDLSEVRDTQKVPSGKRKRGETKPRKNFPCQLCDKAFNSVEKLKVHSYSHTGERPYKCIQQDCTKAFVSKYKLQRHMATHSPEKTHKCNYCEKMFHRKDHLKNHLHTHDPNKETFKCEECGKNYNTKLGFKRHLALHAATSGDLTCKVCLQTFESTGVLLEHLKSHAGKSSGGVKEKKHQCEHCDRRFYTRKDVRRHMVVHTGRKDFLCQYCAQRFGRKDHLTRHMKKSHNQELLKVKTEPVDFLDPFTCNVSVPIKDELLPVMSLPSSELLSKPFTNTLQLNLYNTPFQSMQSSGSAHQMITTLPLGMTCPIDMDTVHPSHHLSFKYPFSSTSYAISIPEKEQPLKGEIESYLMELQGGVPSSSQDSQASSSSKLGLDPQIGSLDDGAGDLSLSKSSISISDPLNTPALDFSQLFNFIPLNGPPYNPLSVGSLGMSYSQEEAHSSVSQLPPQTQDLQDPANTIGLGSLHSLSAAFTSSLSTSTTLPRFHQAFQ

This test deals with nucleoprotein N of Crimean-Congo hemorrhagic fever virus. Put plainly: AlphaScreen luminescence signal relative to Venus negative control (fold); higher = stronger binding to CCHFV N. The method, then:
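AlphaScreen binding of cell-free made, FLAG-GST-tagged human transcription factors and regulators (crude translation products) to biotinylated N protein; signal as fold of the FLAG-GST-Venus control. One pass.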
In general terms: In Alpha technology, singlet oxygen from a donor bead excites a nearby acceptor bead.
The molecule B1 showed an AlphaScreen luminescence signal of 2.09. Consider B2, for which the AlphaScreen luminescence signal was 1.81. Consider B3, for which the AlphaScreen luminescence signal is 2.47.

On to B4, for which the AlphaScreen luminescence signal worked out at 1.53. In the case of B5 it was 2.14.

In turn, B6 showed an AlphaScreen luminescence signal of 3.35. Consider B7, for which the AlphaScreen luminescence signal amounted to 2.14.

B8 showed an AlphaScreen luminescence signal of 2.05.

As to B9, the AlphaScreen luminescence signal came to 3.44.
